# Data reported in PubChem BioAssay AID485297 (National Center for Advancing Translational Sciences (NCATS), 2010).
# Screen size: about 320,000 compounds; about 9,100 (2.8%) were called active. Inconclusive means that the source gave no clear call. Such entries were picked first, then a sample of the others. The call rests on the fitted dose curve; in most records, active means well fitted activation curve with a large enough effect; inconclusive means small, poorly fitted or top-dose-only effect; inactive means no such curve, though single readings can be large or run the other way. Potencies of inconclusive entries are left out as doubtful fits.
# Test: qHTS Assay for Rab9 Promoter Activators; further: nearly all actives have a fitted effect of over 60% in size; on activation, negative = inhibition: % of control where 0% means no effect
# Settings: Huh7 Rab9 promoter-luciferase reporter, luminescence, 24 h; series mostly up to 9.22 µM; activation, negative = inhibition: at the top concentration
# Summary of the method: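 Huh7 reporter line, Rab9 promoter upstream of luciferase. Compound exposure 24 h at 37 °C in reduced-serum medium with 10% FBS. Read-out: luminescence.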
# Potency means the concentration at half of the fitted maximal effect; tags describe the fitted curve by direction and shape.
Structure (SMILES),Potency,"activation, negative = inhibition"
CCOC(=O)c1c(C)[nH]c(C2=NNC(=Nc3ccccc3OC)SC2)c1C,"inconclusive [activator, partial curve]",
CC(C)OCCCNC(=S)NNC(=O)c1ccc(Cl)c(Cl)c1,"inconclusive [activator, partial curve]",
COc1ccc2nc(/C=N/NC(=O)CCNC(=O)OC(C)(C)C)ccc2c1,"inconclusive [activator, partial curve]",
COc1nc(-c2ccccc2)ccc1-c1noc(-c2cccnc2)n1,"inconclusive [activator, partial curve]",
Oc1c(/C=N/c2ccccn2)sc2ccccc12,"inconclusive [activator, single point]",
CC(=O)c1cnc2cc(-c3ccc(Cl)cc3)nn2c1C,active: 3.55 µM,
O=C(NNC1=NS(=O)(=O)c2ccccc21)c1ccc(Cl)cc1,"inconclusive [activator, partial curve]",
O=C(NC1CCCCCCC1)c1cccs1,"inconclusive [activator, partial curve]",
O=C(Cc1cccc(F)c1)Nc1ccc2c(c1)CCC2,"inconclusive [activator, partial curve]",
COc1ccc(C2c3[nH]c4ccccc4c3CCN2C(=O)Cc2nonc2C)c(F)c1 (stereo not given),"inconclusive [activator, single point]",
Cc1ccc(C(=O)COC(=O)c2cc(Cl)nc3ccccc23)cc1,,inactive: 0.713%
CN1CCN(c2ccc(NC(=O)c3cccs3)cc2)CC1,active: 0.562 µM,
O=C(COc1cccc2cccnc12)Nc1ccccc1,active: 3.98 µM,
COc1ccc(-n2ccc(=O)c(C(=O)O)n2)cc1,,inactive: 0.73%
Fc1cccc2sc(N3CCCCC3)nc12,"inconclusive [activator, partial curve]",
CC(/C=N/NC(=O)c1ccc(Br)cc1)=C\c1ccccc1,,inactive: 0.714% [at 1.84 µM]
Cc1cc(C)nc(NC(=O)/C=C/c2cccs2)c1,active: 3.55 µM,
CC1CCN(C(=O)c2ccc3ccccc3c2)CC1,active: 2.51 µM,
CC1=NN(C(N)=S)C(=O)C1N=Nc1c(Cl)cc([N+](=O)[O-])cc1Cl (stereo not given),"inconclusive [activator, partial curve]",
CCOc1cccc(C(=O)Nc2ccc3ccccc3c2)c1,active: 0.562 µM,
CN=C1NN=C(c2cc(C)n(-c3ccc(Cl)cc3)c2C)CS1,active: 2.51 µM,
COc1cc(OC)c(OC)cc1/C=N/Nc1ccc(Cl)nn1,"inconclusive [activator, single point]",
O=C(Nc1sc2c(c1C(=O)O)CCCC2)c1ccc(F)cc1,"inconclusive [activator, single point]",
COc1ccc(C(=O)COc2ccc(F)cc2)c(O)c1,"inconclusive [activator, partial curve]",
O=C(OCC(=O)N1CCN(c2ccccc2)CC1)c1ccc[n+]([O-])c1,,inactive: 2.33%

Structure (SMILES),Potency,"activation, negative = inhibition"
O=C(COc1ccc2oc(-c3ccccc3)cc(=O)c2c1)NCc1ccco1,"inconclusive [activator, single point]",
CSc1ccccc1NC(=O)c1cc(-c2cccs2)on1,"inconclusive [activator, single point]",
Cc1csc(NC(=O)c2ccc3nc[nH]c3c2)n1,active: 0.501 µM,
COCCCN=C1NN=C(c2cc(C)n(-c3ccccc3)c2C)CS1,active: 1.26 µM,
COc1ccccc1-c1ccc(SCc2ccccc2)nn1,"inconclusive [activator, single point]",
CCC(=O)C1CCCN(C(=O)CCc2nnc(-c3ccc4c(c3)OCO4)o2)C1 (stereo not given),"inconclusive [activator, partial curve]",
N/C(=N\OC(=O)c1ccc(Cl)cc1)c1ccccn1,active: 1.41 µM,
Cc1ccc(S(=O)(=O)N2CCCOC2CNC(=O)C(=O)NCCc2c[nH]c3ccccc23)cc1 (stereo not given),,inactive: -0.366%
O=C(Nc1ccc(Cl)cn1)c1cccc(F)c1,"inconclusive [activator, full curve]",
COc1ccc(Nc2nc(-c3ccccc3)cs2)cc1,active: 2.51 µM,
O=C(NC1CCCCC1)c1cc(-c2ccc(F)cc2)on1,active: 3.16 µM,
CCOCc1c(C(=O)NC2=Nc3ccccc3NC(CC)=C2C(=O)OCC)oc2ccccc12,,inactive: -1.85%
Cc1ccc2c(c1)COc1c3ccc(C(=O)O)cc3nn1-2,"inconclusive [activator, partial curve]",
Cn1c(SCC(=O)c2ccc(F)cc2)nnc1-c1ccccn1,"inconclusive [activator, partial curve]",
CN(Cc1ccc(F)cc1)C(=O)C(Cc1ccccc1)NC(=O)c1ccccc1 (stereo not given),,inactive: 2.87%
CC1CCCCN1C(=O)CSc1nnc(-c2ccc(Cl)s2)o1 (stereo not given),"inconclusive [activator, single point]",
Cc1c(-c2ccccc2)nc2ccccc2c1C(=O)OCC(=O)Nc1ncc(C(F)(F)F)cc1Cl,,inactive: -1.44%
Cc1cccn2cc(CNc3ccccc3)nc12,"inconclusive [activator, partial curve]",
COc1cccc2sc(NN)nc12,,inactive: 2.25%
O=C(Nc1ccc2[nH]ncc2c1)c1cccc(F)c1,"inconclusive [activator, partial curve]",
COc1cc(Cl)ccc1OCc1cc(C(=O)N[C@H]2CCCCNC2=O)no1,"inconclusive [activator, partial curve]",
O=C(Nc1ccccc1)c1ccc2ccccc2n1,"inconclusive [activator, single point]",
COC(=O)c1cccc(NC(=O)Nc2ccccc2OC)c1,"inconclusive [activator, single point]",
CC1CCc2sc(C(=O)NC(C)C3CCCO3)cc2C1 (stereo not given),"inconclusive [activator, partial curve]",
CN(C)c1ccc(N=Cc2nc(-c3ccccc3)oc2O)cc1,,inactive: 28.7%
